Assay results from article PMC12136788.
The other results are listed elsewhere or left out.

B1: chr1:23395093:23395094:+_ENSG00000004487_ENST00000356634|perfect_dup|motif|central (ssRNA)
RNA: GGGAGUUCUACAGUCCGACGAUCUGCCUGGCCAAGGGACACAGGCUUAUUAUUGAGGACAUUGAAGUCUAGUUGAUGACGGAGGUAAGAUGUAGCUUCUAGCAACCGGUUAAACUCUUGCUCUACCAUUUCAUCUUUCUCUUUCAACAGAGGAUUGAGCAUCA
B2: chr3:123074248:123074249:-_ENSMUSG00000028114_ENSMUST00000029759|mus_hu|FALSE|FALSE (ssRNA)
RNA: GGGAGUUCUACAGUCCGACGAUCAAUUGUACUAUCUCUUCCAAAUAGAUGAAGGCGUCUUCUACCAAGACAAAAAUGCUCAAUUAUAUGAAAAAUUUCUACAGGUUUUUCUAUAUUGCCAAUUUCAGGUUCUUCUGUGAUAAUCAACAGAGGAUUGAGCAUCA
B3: chr15:31432613:31432614:-_ENSMUSG00000039100_ENSMUST00000090227|mus_hu|FALSE|FALSE (ssRNA)
RNA: GGGAGUUCUACAGUCCGACGAUCGCGGCUUGGUGUAAAAGCAAAUCUGUGCUUGCAUAAUUCACAGUAUUCUUUUCGACUGUGUUUCAGCCAUUGAACUAAGCAUUCUUGAUGGAUAAACUUAAUACUGCCAGUACAUACACACAACAGAGGAUUGAGCAUCA
B4: chr3:135071361:135071362:-_ENSMUSG00000028165_ENSMUST00000029815|mus_mus|motif|central (ssRNA)
RNA: GGGAGUUCUACAGUCCGACGAUCAAGGGGUUUUACUGCCUCAAAAUAUUGUUGAUGGCAAUUAUUUUUCAUAAUUCUUCGGAAAGCAGCAGAGUUCCACAAAAGGCCAAAAAAAUGGCAAAUGACUUCAAAUGAGCAAAACAACAACAGAGGAUUGAGCAUCA
B5: 77618270_77618390_2455_CDS_ENSG00000091656_ENST00000521891|human|control|control (ssRNA)
RNA: GGGAGUUCUACAGUCCGACGAUCACCCCGGGCAAGCCUGGGGUGAGGCUGUCCAGUCUUACAAUAAACACAAGAGCCACCCGGCUCAGGGUGUUUCUCCUUCAUAUGGGCCUCCAGGGUCUGCUGAUAUUUGUAGUGCCAGUUCAACAGAGGAUUGAGCAUCA
B6: chr6:87000925:87000926:+_ENSMUSG00000029992_ENSMUST00000113658|mus_mus|FALSE|FALSE (ssRNA)
RNA: GGGAGUUCUACAGUCCGACGAUCUUUGAUUAGUGUCUCCAAGAUUUCUCGUCUUGUUCGAGGAACAUGGUAAUUUAAAUAAGCAAAUAUACCGCACAUGAUGUUGGUCACGGGCGAGGGCUGAGCUGUCGGGCGCGCGGAGAGCAACAGAGGAUUGAGCAUCA
B7: chr3:100438856:100438857:+_ENSG00000114354_ENST00000490574|hu_hu|FALSE|FALSE (ssRNA)
RNA: GGGAGUUCUACAGUCCGACGAUCAACAAAUAAUGUCAGUUUCAGUAUCCUACUGCACUGAAUUGCAAAGGAAAGGUCAGAACUAUCAAAAAUUGUUAUAAGAUCUCCAUCUUCAUCUUUAUACUUUAUUGUUACUUCAUCAUUCAACAGAGGAUUGAGCAUCA
B8: chr14:78183846:78183847:+_ENSG00000119705_ENST00000557342|hu_hu|hu_hu_hu_mus_False|18_78 (ssRNA)
RNA: GGGAGUUCUACAGUCCGACGAUCUCUCAGAAAUCUUUCUUCAUCAGAUGUUUGAGCUGUUUGCGGAGCCUUUGCUCUUUGAGCUUGAACGUGGAUCUAUGGGAGGGAAAGCACUGUAUUUUCCUGUAAUUUUUUUUUUAAAGACAACAGAGGAUUGAGCAUCA
B9: chr1:185270655:185270656:-_ENSG00000116679_ENST00000392007|hu_mus|FALSE|FALSE (ssRNA)
RNA: GGGAGUUCUACAGUCCGACGAUCCUCAUGCUUAGGGCUUUGCAUUGAAGCAUUUGGAGAAGAGAGACAUCCAGUGGAACUGCCACUUAUCUGCUUAUGGCCAUUCUCACGGGGUGGCUUUUUCUGCACAAACUGAAUGUGGUCCAACAGAGGAUUGAGCAUCA
B10: chr7:141445308:141445309:+_ENSG00000106028_ENST00000265304|hu_hu|hu_hu_hu_mus_False|18_98 (ssRNA)
RNA: GGGAGUUCUACAGUCCGACGAUCUAUGAUUGUUGUUGCUUGUCGCCUCACAUUGUUUUUAUCCAUGUACUCGCCAUAGUCCACUUUCCCUUCCACAAAUAUACGAGCCCCCUUUUUCACAUAUUGAUAUGCCACAUCUCUGAGCAACAGAGGAUUGAGCAUCA
B11: 146261728_146269625_1292_3pUTR_ENSMUSG00000037110_ENSMUST00000109986|mouse|control|control (ssRNA)
RNA: GGGAGUUCUACAGUCCGACGAUCGGCAACAAAAAUGCCUGUCGAAAUACUUCAUUCACAAAAUUCACAUAACCCCGUGUUGACAGGAGGAUCCGCUGCACCAUCUCAUACACUGUCCGAUGCUCCUCUUCAAUGCUACAAAGACAACAGAGGAUUGAGCAUCA
B12: chr17:45757878:45757879:+_ENSG00000108424_ENST00000290158|hu_hu|motif|central (ssRNA)
RNA: GGGAGUUCUACAGUCCGACGAUCUGGCCUAGCUUCUACUAAUUUCAGUACAUCCUUCCCAAAUGCUGUACAUAAGUCCCCGGUUAGUCCAGCAGCACAAGCUACUACUCCAUCUGUGUGAUCCUCAUCUCCAGCAAUGUGGUCCAACAGAGGAUUGAGCAUCA
B13: chr9:15470827:15470828:-_ENSG00000164985_ENST00000397519|hu_hu|FALSE|FALSE (ssRNA)
RNA: GGGAGUUCUACAGUCCGACGAUCGAAUGUCAAGAGAAGGGCCCCAUUCUCAGGGAUAUAACUGCUAUUCCAGUUUAAUAACUAGCUUCAAAACAAAAUGAAUUUUUAUAUUUUCUAGAUGAAUAAUGUACAACCACCAUCUUCCAACAGAGGAUUGAGCAUCA
B14: chr13:56191178:56191179:-_ENSMUSG00000015937_ENSMUST00000016081|mus_mus|FALSE|FALSE (ssRNA)
RNA: GGGAGUUCUACAGUCCGACGAUCUUUAAGGUCAAUGUCAGCAUUGGUAGGAUUGAUUAUGGCCUCCACCUCAAAGCCGGCUAAAUUACUGAUUUCACUGUGAAUAAGGUUCAGCUUCUGGCCGAGGAAGAGGCUCUUGGUGGACAACAGAGGAUUGAGCAUCA
B15: 11407854_11410356_879_3pUTR_ENSMUSG00000026773_ENSMUST00000114846|mouse|control|control (ssRNA)
RNA: GGGAGUUCUACAGUCCGACGAUCUUAUCAGGGUCAAGAGGCUGGUAGCUGGCUUCAUAGCAAUUGAUUCUCUUCAUGAAGUCGUCCAUGGCUUCUGCUGAGUUGCAGUCUUUGUAAUCCGGGCUGGAGAUUUUAACUUCCAUGCAACAGAGGAUUGAGCAUCA
B16: chr9:13610522:13610523:+_ENSMUSG00000031918_ENSMUST00000134674|mus_hu|FALSE|FALSE (ssRNA)
RNA: GGGAGUUCUACAGUCCGACGAUCUCCUGUAUGGCUACUUUCUCCCCUUCAUUUUCCCCCAAGCACAUCUAUAAGGCCUCCCAUUUUGGAUCAACUUGCUAAUAUGUCUUAAGUAUGUAAAUAAUGACGGCAAUAAUUUUCAACCAACAGAGGAUUGAGCAUCA
B17: chr14:94519448:94519449:-_ENSG00000089737_ENST00000330836|hu_mus|motif|central (ssRNA)
RNA: GGGAGUUCUACAGUCCGACGAUCUGAGUUGUGCAGACAAGCCUGGAAGUUCCGGUAUUCAGCUUUUUCAAUCUGUCGGGCGGGACGGAUCCGCUCCUUGACCACAUCCAUGUACUUGGACUGCACUGGAAACAGUGGGAUGUCCAACAGAGGAUUGAGCAUCA
B18: chr17:65740002:65740003:+_ENSG00000130935_ENST00000581375|hu_hu|motif|central (ssRNA)
RNA: GGGAGUUCUACAGUCCGACGAUCACACCGUUCUUGCCUGGAUGAAGCAAGAGUUCACAUAAAAGAGCUUUAUAAAAUGUCGGUGAAGGAGAAUUGAUAAUAUCAGAAGAGCUCCAGCACUUCAAUUGAAUAUAAUCCUCUAUUCAACAGAGGAUUGAGCAUCA
B19: chr7:90019433:90019434:+_ENSMUSG00000057706_ENSMUST00000082237|mus_hu|mus_mus_mus_hu_True|98_108 (ssRNA)
RNA: GGGAGUUCUACAGUCCGACGAUCAAAAAUACAGUGUUCUUUGCCAUUAAGGCCAUACUAAAAUAAAAAGAUUUAACCCAGCUACAAAAAAGUUCACUGAACUUAAAUUAAAAUACUUGUAAACAUCUUUGCAAUAUGAAAUAUCAACAGAGGAUUGAGCAUCA
B20: chr5:132216804:132216805:-_ENSG00000072364_ENST00000265343|hu_hu|motif|central (ssRNA)
RNA: GGGAGUUCUACAGUCCGACGAUCAGAUAUCAACUUGGCAUCCUGGCGAAGCCAGUGCAGUCCCUGCCGGGUAUAACGAACGGGAUCUGUCAUGAUGCUUGCAUUAAAGAUGAGAGGGCCCAUUACUUUAUCCAGUUCAGCAAACAACAGAGGAUUGAGCAUCA
B21: 4764777_4764897_1258_3pUTR_ENSG00000101265_ENST00000379400|human|control|control (ssRNA)
RNA: GGGAGUUCUACAGUCCGACGAUCUCCAGGUAGCAAAUGAUGGCUUGGCCGGAGCUGGGGAGGUUUGUGUCUAAAUGUUUCCAUGGAAAGAAAGUGCCUAGCUUCCUGGGGGUCUUAUGGGCAAUGGCGGUUCCUGGGGUGCCCCAACAGAGGAUUGAGCAUCA
B22: chr14:66974463:66974464:+_ENSMUSG00000022044_ENSMUST00000074523|mus_hu|mus_mus_mus_hu_False|8_48 (ssRNA)
RNA: GGGAGUUCUACAGUCCGACGAUCUUGUAGGACGACUUAUUCAGGGGAUCGGCCAGGAAGCAGGAGCAGAACAAGGACACCAGCGGGAGUUCCUUCAUCUUCUCUUUGUAGGCAGCAAGGGUCAUGUUGGCUGGAAUUGGUGGCCAACAGAGGAUUGAGCAUCA

target: T1, UNK ZnF1-3 (human, UniProt Q9C0B0 31-174); assay: nsRBNS (natural sequence RNA bind-n-seq); RBNS binding buffer (assumed for nsRBNS): 25 mM Tris pH 7.5, 150 mM KCl, 3 mM MgCl2, 0.01% Triton X-100, 500 ug/ml BSA, 20 U/ml SUPERase-In, 4 C; UNK is unkempt and MSI1 is Musashi-1; names of the RNAs are library labels; protein concentration not given here; high values mean tight binding
T1 sequence: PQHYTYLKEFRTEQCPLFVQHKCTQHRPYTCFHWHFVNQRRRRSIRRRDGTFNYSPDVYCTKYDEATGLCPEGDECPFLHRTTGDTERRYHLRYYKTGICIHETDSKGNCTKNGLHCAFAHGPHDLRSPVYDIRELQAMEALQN

Binder | binding signal [enrichment R]
B1 | 0.618
B2 | 0.841
B3 | 0.854
B4 | 1.34
B5 | 0.823
B6 | 1.31
B7 | 0.914
B8 | 1
B9 | 1.06
B10 | 0.585
B11 | 1.74
B12 | 0.869
B13 | 1.82
B14 | 0.773
B15 | 0.481
B16 | 1.7
B17 | 0.707
B18 | 1
B19 | 1.78
B20 | 1.05
B21 | 1.28
B22 | 2.85
